Test results taken from the supplement of paper PMC12217912.
Some of the results follow. The full chains were built here from the parent and the listed change. Values near 0.05 are background.

B1: TEV protease; numbered along this chain (parent)
chain: MGESLFKGPRDYNPISSSICHLTNESDGHTTSLYGIGFGPFIITNKHLFRRNNGTLVVQSLHGVFKVKDTTTLQQHLVDGRDMIIIRMPKDFPPFPQKLKFREPQREERICLVTTNFQTKSMSSMVSDTSCTFPSGDGIFWKHWIQTKDGQCGSPLVSTRDGFIVGIHSASNFTNTNNYFTSVPKNFMELLTNQEAQQWVSGWRLNADSVLWGGHKVFMVKPEEPFQPVKEATQL

Variants of: B1
Experiment: raw area under fraction-flipped curve 0-4 h after induction (AUC4h, not background-subtracted), DNA-recorder readout of cleavage of the substrate (dimensionless); higher = more cleavage of the substrate by the protease variant
Conditions: temperature: 34 °C; time window: 0-4 h after rhamnose induction
Protocol: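 In vivo DNA recorder in E. coli TOP10(DE3) ΔrhaA at 34 °C. Each TEVp single-site mutant (parent TEVp 0) is paired with a single-site variant of the 7-mer TEVs (canonical ENLYFQ|S). The substrate sits between flexible linkers in a Bxb1-sfGFP-TEVs-SsrA fusion, so cleavage stabilises Bxb1 and speeds flipping of a recombination array, read by NGS. The value is the raw area under the fraction-flipped curve over 0-4 h after rhamnose induction (AUC4h), with ≥20 reads per time point. It is not background-subtracted; inactive controls average about 0.047.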
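Further: Bxb1 expression induced with 0.2% (w/v) L-rhamnose at OD600 near 0.5, cultures sampled hourly, flipped fraction per protease–substrate barcode pair counted by paired-end Illumina sequencing.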

Row | Variant | area with substrate ENLAFQS | area with substrate ENLCFQS | area with substrate ENLDFQS | area with substrate ENLEFQS | area with substrate ENLFFQS | area with substrate ENLGFQS | area with substrate ENLHFQS | area with substrate ENLIFQS | area with substrate ENLKFQS | area with substrate ENLLFQS | area with substrate ENLNFQS | area with substrate ENLPFQS | area with substrate ENLQFQS | area with substrate ENLSFQS | area with substrate ENLWFQS | area with substrate ENLMFQS | area with substrate ENLVFQS | area with substrate ENLRFQS | area with substrate ENLTFQS
1 | G54S | 0.0527 | 0.0648 | 0.0636 | 0.0589 | 0.062 | 0.0516 | 0.0598 | 0.0662 | 0.0648 | 0.0586 | 0.0606 | 0.0749 | 0.0618 | 0.062 | 0.0351 | – | – | – | –
2 | L56E | 0.0429 | – | 0.0642 | 0.0482 | 0.0544 | 0.0406 | 0.0419 | 0.0504 | 0.0478 | 0.0507 | 0.0522 | – | – | 0.0554 | 0.0412 | 0.0613 | – | – | –
3 | Q59M | 0.0761 | 0.0646 | 0.0645 | 0.0048 | 0.0847 | – | 0.0677 | 0.0697 | 0.0684 | 0.0697 | 0.0544 | 0.0641 | 0.078 | 0.063 | – | – | 0.113 | – | –
4 | S60M | 0.0764 | 0.072 | 0.0618 | 0.0668 | 0.1 | – | 0.066 | 0.0778 | 0.0879 | 0.118 | 0.0636 | 0.0584 | 0.0602 | 0.0409 | 0.0661 | 0.0585 | 0.0866 | 0.0562 | –
5 | S60P | 0.044 | – | 0.0421 | 0.0469 | 0.0551 | – | 0.0604 | – | 0.0466 | – | 0.0404 | 0.0482 | – | 0.0438 | 0.0404 | – | – | 0.0532 | 0.0326
6 | S60R | 0.0679 | – | 0.0571 | – | 0.0687 | 0.0591 | 0.0828 | 0.0611 | 0.0664 | 0.0681 | 0.0529 | 0.0495 | 0.0758 | 0.0564 | 0.0655 | 0.0521 | – | – | 0.0645
7 | H62R | 0.0649 | 0.0671 | 0.058 | 0.0551 | – | – | 0.0841 | 0.0757 | 0.0616 | – | 0.0531 | – | 0.0768 | 0.0656 | – | 0.0652 | 0.0846 | – | –
8 | H62S | 0.0642 | – | 0.0621 | 0.0587 | 0.0839 | – | 0.0752 | 0.0596 | 0.0712 | 0.0752 | 0.0599 | 0.0559 | 0.0499 | – | – | 0.0696 | 0.1 | 0.0634 | 0.0676
9 | F65M | 0.0569 | 0.0531 | 0.0664 | 0.0603 | 0.0782 | – | – | 0.0777 | 0.0717 | 0.0735 | 0.0608 | – | 0.069 | 0.068 | 0.0587 | – | – | 0.0811 | –
10 | V67C | 0.0647 | – | 0.0517 | 0.0648 | – | – | 0.0552 | 0.105 | 0.0956 | 0.0727 | – | – | – | 0.086 | – | – | – | – | –
11 | K68C | 0.0575 | – | – | 0.0623 | 0.113 | 0.0563 | 0.0834 | 0.106 | 0.095 | 0.0805 | 0.0661 | 0.0606 | – | 0.0504 | – | – | – | 0.0715 | –
12 | K68V | 0.0733 | 0.033 | 0.0518 | 0.0642 | 0.0674 | 0.0553 | 0.0612 | 0.0763 | 0.0863 | 0.0677 | 0.0598 | 0.0507 | 0.0493 | – | 0.0744 | 0.0671 | 0.0729 | 0.0732 | –
13 | T70G | 0.0697 | – | 0.0624 | – | – | – | – | 0.0673 | – | 0.0598 | 0.0584 | 0.0597 | – | – | 0.054 | – | 0.0573 | – | –
